Data from the supplement of paper PMC3334620.
In all, about 33,000 sequences were measured (“E-score (-0.5 to 0.5)”: median about -0.054, highest 2% from about 0.35 on). The list shows a part of the results.

Each sequence was assayed against T1, Stb5 (UniProt P38699) (assay: PBM E-score (8-mer binding enrichment) (E-score (-0.5 to 0.5)); higher = stronger / more preferred TF binding; most listed sequences are background and not binding sites). Details: protein concentration: 200 nM; construct: GST-full length.
T1 sequence: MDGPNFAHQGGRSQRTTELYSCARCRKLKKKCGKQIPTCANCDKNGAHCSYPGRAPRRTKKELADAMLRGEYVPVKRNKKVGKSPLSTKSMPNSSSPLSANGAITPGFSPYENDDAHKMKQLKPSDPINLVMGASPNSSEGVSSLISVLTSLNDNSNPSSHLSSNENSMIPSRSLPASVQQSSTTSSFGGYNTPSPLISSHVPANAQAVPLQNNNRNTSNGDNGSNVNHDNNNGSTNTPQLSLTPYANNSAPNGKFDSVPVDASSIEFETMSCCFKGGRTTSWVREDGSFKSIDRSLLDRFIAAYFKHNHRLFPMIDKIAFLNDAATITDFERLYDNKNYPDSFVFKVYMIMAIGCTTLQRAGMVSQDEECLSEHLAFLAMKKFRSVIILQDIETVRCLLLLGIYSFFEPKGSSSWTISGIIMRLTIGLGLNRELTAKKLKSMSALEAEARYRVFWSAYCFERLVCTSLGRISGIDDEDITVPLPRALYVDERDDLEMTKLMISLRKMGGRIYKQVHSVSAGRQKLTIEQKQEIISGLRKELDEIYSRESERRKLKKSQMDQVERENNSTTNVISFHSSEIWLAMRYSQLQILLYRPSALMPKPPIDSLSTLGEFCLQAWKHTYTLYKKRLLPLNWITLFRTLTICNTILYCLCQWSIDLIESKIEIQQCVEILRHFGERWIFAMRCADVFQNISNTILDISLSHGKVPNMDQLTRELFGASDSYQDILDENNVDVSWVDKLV
Outline: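 PURExpress in vitro transcription/translation supplied GST-tagged yeast transcription factors, either full-length or DNA-binding domain. Applied at about 100-200 nM to universal all-10-mer Agilent arrays double-stranded by primer extension, the bound protein was detected with fluorescent anti-GST. E-scores, modified Wilcoxon-Mann-Whitney statistics, were given by the Universal PBM Analysis Suite to ungapped eight-base words pooled with their reverse complements after masliner normalisation.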

| Sequence | PBM E-score |
| --- | --- |
| AATCCATG | -0.0649 |
| CCTAGGTA | -0.216 |
| AGGCTCAG | -0.357 |
| GGCGGAAA | 0.227 |
| ATACCCCC | 0.351 |
| CGGGAAAC | 0.116 |
| ACCATGGT | -0.302 |
| CGGTCGTC | 0.0319 |
| CCCCTTTA | -0.166 |
| ACTCTGAG | -0.207 |
| GAGAACCA | -0.0472 |
| ATACTCTC | -0.0256 |
| CCCCCACC | -0.158 |
| CACGGGAA | 0.111 |
| CCCAGACG | -0.0786 |
| ATAGGCTG | -0.136 |
| AGTCAGGG | -0.275 |
| ACTATGTC | 0.00039 |
| AGCCTTGC | -0.208 |
| ACGTAGGG | -0.0549 |
| GCTTCGAC | -0.137 |
| GAGGATCA | -0.137 |
| CGAGCAGC | -0.0896 |
| AATTTAGT | -0.162 |
| AGATGGAA | -0.128 |

| Sequence | PBM E-score |
| --- | --- |
| TGCGGCCA | 0.0185 |
| GTGGTTGA | -0.123 |
| CCAAATGG | 0.0606 |
| CGGTTCGC | -0.00452 |
| AAGGCGTA | -0.114 |
| AAGTATTA | -0.171 |
| GACCAAAC | -0.0734 |
| GCTCAGCA | -0.0662 |
| TAGTCCGA | 0.309 |
| ACACCCGC | 0.246 |
| ACCCCTAC | -0.171 |
| AATAGGTG | -0.213 |
| CTTACACC | 0.238 |
| AGCCCTAT | -0.188 |
| AAAAACAT | -0.199 |
| CTTGGACA | -0.0387 |
| CGTAGAAA | -0.144 |
| GAAACTTA | 0.00796 |
| TGAACCCA | -0.126 |
| CAGTCGCC | -0.00024 |
| AGTTTTTA | -0.105 |
| AGATTCAT | -0.232 |
| AGGAAGCA | -0.121 |
| CAAGTGGA | -0.204 |
| CCTGAGGA | -0.0963 |

| Sequence | PBM E-score |
| --- | --- |
| AGCCGGAT | 0.3 |
| CGTACTAC | 0.123 |
| AATCTGGT | 0.0765 |
| CACAACAA | -0.0976 |
| AAACTTTA | 0.0435 |
| ACCGTCCC | 0.266 |
| CTTCTAGA | -0.166 |
| GAAAGAGA | -0.124 |
| AACTTCCG | 0.255 |
| ATCCGCTG | 0.189 |
| ATGCAGTA | -0.07 |
| ACTTTAAT | -0.0458 |
| ACGGAGCG | 0.299 |
| AACAGAAT | -0.165 |
| GTATTCAA | 0.00883 |
| CCGGGTGA | 0.179 |
| AAGTGCGT | 0.0845 |
| CTCGGCAG | 0.0153 |
| GCATAAAA | 0.0437 |
| AAGCACCT | -0.21 |
| ATATTGGC | 0.0118 |
| CACCTGCG | -0.00428 |
| CGTCCCGC | 0.2 |
| AACGTTCG | -0.0398 |
| ACTCGTGA | -0.293 |

| Sequence | PBM E-score |
| --- | --- |
| AAGCTTTG | -0.222 |
| AAGATAGC | 0.00882 |
| TCAGGTCA | -0.142 |
| ATGTGAGC | -0.255 |
| TAGTTTCA | 0.0389 |
| GTAAATAA | -0.0506 |
| GACAGTCA | -0.131 |
| AGTAGCTC | -0.118 |
| ATATGCCG | 0.272 |
| CACCTCGG | 0.218 |
| TACATGAA | -0.118 |
| GGAACTCC | 0.181 |
| ACTGGACT | -0.192 |
| GTCCTGTA | 0.0814 |
| GACATAAA | 0.13 |
| GTATCCTA | -0.078 |
| AGGACATA | 0.0934 |
| CACAGACG | -0.0394 |
| CATTTTGG | -0.0988 |
| GATACACA | -0.151 |
| AGAAATAG | -0.115 |
| CTAAATCA | 0.0591 |
| GTACCCGA | 0.0499 |
| CTCTCCGA | 0.00777 |
| ACACTGCT | -0.267 |

| Sequence | PBM E-score |
| --- | --- |
| ACTGAGAG | -0.192 |
| AGCGATTG | -0.181 |
| GAGAAGAA | -0.262 |
| TGCCAGAA | -0.307 |
| TACTTGCA | -0.0614 |
| ACGGTACG | 0.214 |
| ACTTCTAA | 0.0116 |
| GCCCGTCC | 0.28 |
| GTGGCATA | -0.222 |
| AGTCGAAA | -0.109 |
| GGGTCTGA | -0.0307 |
| CCTACATA | 0.0245 |
| AGGTTCTG | -0.201 |
| ATTTAACA | 0.00106 |
| AGAAAGGA | -0.0618 |
| ACCAGAAC | -0.164 |
| AATCAAAT | -0.0658 |
| ATACTCAT | -0.105 |
| CGCGTCAG | -0.0371 |
| GAGAGGAA | -0.131 |
| AACTGTGG | -0.143 |
| CGGAAAAA | 0.254 |
| ATTATCGC | -0.0009 |
| CCAATTCC | 0.0601 |
| AGGCAGGC | -0.198 |

| Sequence | PBM E-score |
| --- | --- |
| AGGGTATG | -0.249 |
| ATGGACAA | -0.314 |
| CTAGAGTC | -0.243 |
| CGAGTGCG | 0.0659 |
| AGAGACTC | -0.355 |
| CTAAAGCA | 0.0717 |
| AAGGCATC | -0.161 |
| GTGTAAAC | -0.124 |
| ATGTATCG | 0.0258 |
| ATCAGGTG | -0.0422 |
| ACCGGGGA | 0.316 |
| ACGTTTGG | -0.139 |
| ACACTGCA | -0.172 |
| TGAGATCA | -0.167 |
| AGCCAACC | -0.126 |
| AAGACGAC | -0.0584 |
| CTTCTTCC | -0.0877 |
| ATACTGGA | 0.055 |
| AGCACCGA | 0.476 |
| AAAAGGCA | -0.087 |
| AAAGTGCT | -0.112 |
| CAACCACA | -0.101 |
| AAAGGATT | -0.138 |
| CTGACAAA | -0.124 |
| GGTGTTGA | 0.162 |

| Sequence | PBM E-score |
| --- | --- |
| AAGGCAAT | -0.0747 |
| AAGCCCAG | -0.154 |
| ATAGCCTG | -0.33 |
| ACACATCC | -0.108 |
| GACTGCAA | -0.165 |
| ACATAGAC | -0.0486 |
| CGCCCCGC | 0.325 |
| AACGTACT | -0.106 |
| TCCAATAA | 0.064 |
| GAAGCACA | -0.0648 |
| CAATCCCG | 0.281 |
| ATACCGTG | 0.249 |
| ACTACTTG | -0.179 |
| ATTTCTAC | -0.052 |
| AACTTAAC | 0.0345 |
| GCACGTGA | -0.337 |
| CCCCGGGG | 0.393 |
| CATTAACG | -0.00146 |
| AAGAATCA | 0.0573 |
| ACCTGGGC | -0.127 |
| GGTTGAAC | -0.0116 |
| CATTCAGA | -0.172 |
